Laboratory results taken from PubChem BioAssay AID2546 (National Center for Advancing Translational Sciences (NCATS), 2010).
The campaign covered roughly 310,000 compounds. About 11,000 (3.5%) were called active. The inconclusive results got no clear call from the source; some entries with a clear call stand among them for comparison. The call rests on the fitted dose curve; in most records, active means well fitted inhibition curve with a large enough effect; inconclusive means small, poorly fitted or top-dose-only effect, or effect the other way; inactive means flat fitted curve, though single readings scatter. Potencies of inconclusive entries are left out as doubtful fits.

assay: VP16 counterscreen qHTS for inhibitors of ROR gamma transcriptional activity; conditions: Drosophila S2 Gal4-VP16 UAS-luciferase, luminescence, 20 h; activity, negative = inhibition: at 53.6 µM (top of the series);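 further: Gal4-VP16 expression switched on by copper sulfate through the metallothionein promoter; nearly all actives have a fitted effect of over 50% in size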
On the % scale 0 is the no-effect control and ±100 the full control effect; potency means the concentration at half of the fitted maximal effect; tags describe the fitted curve by direction and shape.

Compound | activity, negative = inhibition | Potency
CN1CCc2c(OCc3ccc(F)cc3)cccc2C1=O | inactive: -4.29% | –
C/C(=N\NC(=O)c1ccccc1)c1c(C)[nH]n(-c2ccccc2)c1=O | – | active: 1.26 µM
CCOc1ccc(-n2c(SC(C)C)nc3c(c2=O)SCC3)cc1 | – | inconclusive [inhibitor, single point]
COc1cc(C(=O)NC(=S)Nc2ccc(N3CCCC3)cc2)cc(OC)c1OC | – | active: 4.47 µM
CC(C)C(=O)Nc1cccc(-c2nc3ncccc3o2)c1 | inactive: -11.3% | –
Cc1nn(Cc2ccc(C(=O)NC(C)(C)C)o2)c(C)c1Br | – | active: 10 µM
CCC(=O)OC1C2CC3=C4CC(=O)OC(c5ccoc5)[C@]4(C)CCC3[C@@](C)(C2=O)C(CC(=O)OC)C1(C)C (some centres not stated) | inactive: 0.18% | –
Cc1ccc(S(=O)(=O)NCC(=O)N/N=C/c2ccccc2O)cc1 | – | inconclusive [inhibitor, single point]
O=C(c1ccc2nc(N3CCCCC3)sc2c1)N1CCN(c2ccccn2)CC1 | – | inconclusive [inhibitor, single point]
NNc1nc2sc3c(c2c(=O)[nH]1)CCc1ccccc1-3 | – | active: 17.8 µM
Cc1occc1C(=O)NNC(=S)NC(=O)COc1ccc(Cl)cc1Cl | – | inconclusive [inhibitor, single point]
O=C(COc1ccc(S(=O)(=O)N2CCOCC2)cc1)NCc1ccccn1 | inactive: -3.48% | –
COc1cccc(-c2c(C(=O)N/N=C/c3ccsc3)nnn2-c2nonc2N)c1 | – | inconclusive [inhibitor, single point]
Fc1ccc(-n2[nH]nnc2=S)cc1N1CCCC1 | – | inconclusive [inhibitor, single point]
CCN(CC)CCNc1nc(-c2cccs2)c(CC(=O)O)s1 | inactive: 7.21% | –
CC(=O)c1sc(NC(=O)c2ccc(F)c(F)c2)nc1C | – | inconclusive [inhibitor, full curve]
CCCCCc1ccc(-c2ccc(/C=C/C(N)=O)cc2)nc1 | – | inconclusive [inhibitor, full curve]
Cc1ccc(C(=O)NC(=S)Nc2ccc(CN3CCOCC3)cc2)cc1 | – | inconclusive [inhibitor, single point]
Cn1cccc1/C=C1\CC(C(C)(C)C)C/C(=C\c2cccn2C)C1=O (configuration not stated) | – | active: 5.01 µM
COc1ccc2cc(C(C)C(=O)Nc3cccc(S(=O)(=O)N(C)C)c3)ccc2c1 (configuration not stated) | inactive: -5.43% | –
CCS(=O)(=O)N1Cc2ccccc2CC1C(=O)Nc1nnc(SCc2ccc(C#N)cc2)s1 (configuration not stated) | – | inconclusive [inhibitor, single point]
CCOc1ccc(C(=O)N/N=C/c2ccccc2[N+](=O)[O-])cc1 | – | inconclusive [inhibitor, single point]
CCOc1cc(C2NN=C(c3ccc(C)cc3)S2)ccc1O (configuration not stated) | – | active: 14.1 µM
COCCNc1nnc(SCC(=O)Nc2sc3c(c2C(=O)c2ccccc2)CCCC3)s1 | – | inconclusive [inhibitor, single point]
Fc1ccccc1NC(=S)N/N=C/c1ccccc1Br | – | active: 4.47 µM
O=C(CCN1C(=O)C2C3C=CC(C3)C2C1=O)N1CCN(c2cccc(Cl)c2)CC1 (configuration not stated) | inactive: -14.8% | –

Compound | activity, negative = inhibition | Potency
COc1ccc(CSc2nc(CSC)cc(N3CCOCC3)n2)cc1 | – | inconclusive [inhibitor, single point]
Cc1ccc(C(=O)N/N=C2\CCc3ccccc32)c(C)c1 | – | inconclusive [inhibitor, partial curve]
O=C(N/N=C/c1c[nH]c2ccccc12)c1ccccc1O | – | active: 6.31 µM
c1csc(C(c2nnnn2C2CCCCC2)N2CCCC3(CCCCC3)C2)c1 (configuration not stated) | inactive: 5.23% | –
Cc1nn(Cc2ccc(Cl)cc2)c(C)c1NC(=O)C(c1ccccc1)c1ccccc1 | inactive: -0.86% | –
CC1(C)CC2CN(C(=O)Cc3ccccc3)C(C)(C2)C1 (configuration not stated) | inactive: 3.51% | –
Cc1nnc(-c2ccccc2)c(=O)n1/N=C/c1c(O)ccc2ccccc12 | – | active: 17.8 µM
O=[N+]([O-])c1cccc(-c2nnc(C34CC5CC(CC(C5)C3)C4)o2)c1 | – | inconclusive [activator, single point]
COc1cc(/C=C/C(=O)c2ccc(NS(=O)(=O)c3ccc(C)cc3)cc2)ccc1OC(F)F | – | inconclusive [inhibitor, single point]
OC(CNCc1ccco1)Cn1c2ccc(Br)cc2c2cc(Br)ccc21 (configuration not stated) | – | inconclusive [inhibitor, single point]
CCN(C(=O)c1cc(Cl)ccc1OC)C1CCCCC1 | inactive: 5.23% | –
Cc1ccc(C)c(S(=O)(=O)N2CCN(Cc3ccc(O)c4ncccc34)CC2)c1 | – | active: 3.16 µM
CCCC(c1nnnn1C(C)(C)C)N1CCN(Cc2ccccc2OC)CC1 (configuration not stated) | – | inconclusive [inhibitor, single point]
Cc1cc(C(=O)CN2C(=O)NC3(CCCc4sccc43)C2=O)c(C)n1-c1ccc(Cl)cc1 (configuration not stated) | – | inconclusive [inhibitor, single point]
CCC(=O)Oc1oc(-c2ccccc2)nc1C=Nc1ccccc1OC | – | inconclusive [inhibitor, partial curve]
COc1ccc(C)cc1NC(=O)CC(NC(C)=O)c1ccccc1 (configuration not stated) | – | inconclusive [inhibitor, full curve, poor fit]
CCOC(=O)C1CCN(Cc2cc(Cl)c3ccccc3c2O)CC1 | – | inconclusive [inhibitor, single point]
CC1=NN(C(=O)CCc2ccccc2O)C(O)(C(F)(F)F)C1 (configuration not stated) | – | active: 12.6 µM
Cc1ccc(N2CC(C(=O)Nc3nc4ccc(S(C)(=O)=O)cc4s3)CC2=O)cc1C (configuration not stated) | inactive: 10.8% | –
C=CCc1cccc(/C=N/NC(=O)CCC(=O)Nc2ccc(C)cc2)c1O | – | inconclusive [inhibitor, single point]
Cc1cccc(OCCn2c(=O)n(C)c3ccccc32)c1 | – | inconclusive [inhibitor, full curve]
O=C(Nc1cccc(-c2cnc3ccccc3n2)c1)c1cccc(NC(=O)c2ccco2)c1 | – | inconclusive [inhibitor, partial curve]
Cc1[nH]n(-c2ccccc2)c(=O)c1C(C[N+](=O)[O-])c1ccc(F)cc1 (configuration not stated) | – | inconclusive [inhibitor, single point]
COc1cccc(NC(=O)CN(C)C(C)C(=O)Nc2ccc(C#N)cc2)c1 (configuration not stated) | – | inconclusive [inhibitor, partial curve]
Cc1cc(Cl)ccc1NC(=S)NC1CCCC1 | – | active: 14.1 µM
O=C(N/N=C/c1ccccc1F)c1cc2c(ccc3ccccc32)o1 | – | inconclusive [inhibitor, single point]

Compound | activity, negative = inhibition | Potency
CNc1nc(SCc2ccc(C)cc2)nc2c1CCCC2 | – | inconclusive [inhibitor, partial curve]
Cn1c(=O)c2c(nc(NCc3ccc4c(c3)OCO4)n2Cc2ccccc2F)n(C)c1=O | – | active: 17.8 µM
COC(=O)c1cc(NS(=O)(=O)c2ccc(OC)c(OC)c2)ccc1Cl | – | inconclusive [activator, single point]
Cc1cnn(C(=S)NCc2ccco2)c1 | – | inconclusive [inhibitor, single point]
Cc1ccnc(NC(=O)C2CCC(CNc3c(N4CCCC4)c(=O)c3=O)CC2)c1 (configuration not stated) | inactive: -11.7% | –
C=C(C)COc1ccc(-c2ncncc2-c2ccc(Cl)cc2)c(O)c1 | – | inconclusive [inhibitor, single point]
CC(=O)Nc1ccc(N)cc1 | inactive: 12.1% | –
CC(C)n1c(O)c(/C=C2\C=NN=C2c2ccccc2)sc1=S | inactive: -28.4% | –
CCC1S/C(=N/C(=O)NC2CCCCC2)NC1=O (configuration not stated) | – | inconclusive [activator, full curve, poor fit]
CCOC(=O)c1oc2cccc(OCC(O)CNC(C)C)c2c1C (configuration not stated) | – | active: 15.8 µM
COc1ccc(/C=C2\SC(=S)N(CC(=O)N(C)C3CCS(=O)(=O)C3)C2=O)cc1 (configuration not stated) | inactive: 9.19% | –
Cc1[nH]n(-c2ccccc2)c(=O)c1C=Nc1cccc2cccnc12 | – | active: 0.631 µM
O=C(O)CCc1ccc(-c2cccs2)o1 | – | inconclusive [inhibitor, single point]
COC(=O)c1sccc1NC(=S)Nc1ccc(OC)cc1 | – | active: 14.1 µM
Clc1ccccc1CONc1ncnc2nonc12 | inactive: -5.49% | –
N#Cc1sc(NCc2ccccc2)nc1Cl | – | inconclusive [activator, single point]
CCOC(=O)N(CC)OC(=O)Nc1ccc(Cl)cc1 | inactive: 8.46% | –
O=C(/C=C/Nc1ccc(Br)cc1F)c1ccccc1 | – | active: 5.62 µM
Cc1cc(Oc2ccc(C#N)cc2)nc(NCc2ccccc2)n1 | – | inconclusive [inhibitor, single point]
CCCc1ccc(C(C)NC(=S)NC2CCCCC2)cc1 (configuration not stated) | – | active: 3.55 µM
NNC(=O)c1sccc1OCc1ccc(Cl)cc1Cl | – | inconclusive [inhibitor, single point]
COC(=O)c1ccc(NC(=S)NC(=O)c2c(Cl)cnn2C)cc1 | – | inconclusive [activator, single point]
COC(=O)C1=C(Nc2ccccc2NC(=O)CCCC(=O)O)CSC1 | inactive: -7.47% | –
CC(C)CNC(=S)N1CCN(C(c2ccccc2)c2ccccc2)CC1 | – | inconclusive [inhibitor, single point]
COc1ccc(-c2[nH]ncc2/C=N/NC(=O)c2cc(Br)ccc2O)c(OC)c1 | – | active: 0.891 µM
